The labels stand for the following.
B1: CPEB3 Ribozyme (parent)
chain: UAACAGGGGGCCACAGCAGAAGCGUUCACGUCGCAGCCCCUGUCAGAUUCUGGUGAAUCUGCGAAUUCUGCUGUAUAUCUC

The source gives no read counts; variants with many changes may rest on few reads.

Variants of B1 are the subject of this data set. Nature of the data set: self-cleavage, relative activity (ratio to wild type); higher = more cleavage; in vitro, sequencing. The procedure, abridged:
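Libraries of CPEB3 self-cleaving ribozyme mutants came from rounds of error-prone PCR and carried barcodes, which DNA sequencing matched to variants. In vitro transcription used T7 RNA polymerase at 37°C for 5 hours, with a further 15 min in DNase I before EDTA stopped the reaction; the ribozymes cleaved during both steps. The RNA was reverse transcribed with template switching and sequenced on Illumina. Relative activity is the cleaved/total read fraction of a variant divided by that of the unmutated ribozyme, averaged over three batches with at least 5 reads.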
Consider UAACAGGGGGCCACAGCAGAAGCGUUCACGUCGCAGCCCCUCUCAGAUACUGGUGAAUCUGCGAACUCUGCUGUAUAUCUC [G42C U49A U66C], for which the self-cleavage is 0.16. Turning to UAACAGGGGGCCACAGCAGAAGCGUUCACGUCGCAGCCCCUGACGGAUUCUGGUGAUUCUCCGAAUUCUGCUGUAUAUCUC [U43A A45G A57U G61C], the self-cleavage was 0.17. As for UAACAGGGGGCCACAGCAGAAGCGUUCACGUCGCAGCCCCUGACAGAUUCUGGUGAAUCUGCGAAUCCUGCUGUAUACCUC [U43A U67C U78C], the figure is 0.24; as for UAACAGGGGGCCACAGCAGAAGCGUUCACGUCGCAGCCCCUGACAGAUCCUGGUGGAUCUGCGAGUUCUGCUGUAUAUCUC [U43A U49C A56G A65G], 0.64. The same measure for UAACAGGGGGCCACAGCAGAAGCGUUCACGUCGCAGCCCCUAUCAGAUCCUGGUGGAUCUGCGAAUUCAGCUGUAUAUCUC [G42A U49C A56G U69A]: 0.25; for UAACAGGGGGCCACAGCAGAAGCGUUCACGUCGCAGCCCCUGACAGAUUCUGGUGAAUCUGCGAAUUCUGCCGUAUACCUC [U43A U72C U78C]: 1.08. Turning to UAACAGGGGGCCACAGCAGAAGCGUUCACGUCGCAGCCCCUGCCGGAUUCUGGUGAAUCUGCGAAUUCUGCGGUAUAUCUC [U43C A45G U72G], the self-cleavage turned out to be 0.65. As for UAACAGGGGGCCACAGCAGAAGCGUUCACGUCGCAGCCCCUAUCGGAUCCUGGUGAAUCUGCGAAUUCUGCUGUAUAUCUC [G42A A45G U49C], the figure is 0.14; as for UAACAGGGGGCCACAGCAGAAGCGUUCACGUCGCAGCCCCUAUCGGAUUCUGGUGAAUCUGCGAAUUCUGCUGCAUACCUC [G42A A45G U74C U78C], 0.09.

As to UAACAGGGGGCCACAGCAGAAGCGUUCACGUCGCAGCCCCUGCCUGAUUCUGGAGAAUCUGCGAAUUCUGCUGUGUAUCUC [U43C A45U U54A A75G], the self-cleavage came to 0.17. Consider UAACAGGGGGCCACAGCAGAAGCGUUCACGUCGCAGCCCCUGACAGAUUCUGGUGAGUCUGCGGACUCUGCUGUAUAUCUC [U43A A57G A64G U66C], for which the self-cleavage was 0.24. The same measure for UAACAGGGGGCCACAGCAGAAGCGUUCACGUCGCAGCCCCUGCCAGAUUCUGGUGUAUCUGCGAGUUCCGCUGUAUAUCUC [U43C A56U A65G U69C]: 0.09; for UAACAGGGGGCCACAGCAGAAGCGUUCACGUCGCAGCCCCUGACAGAUUCUGGUGAGUCUGCGAAUUCUGCAGUAUAUCUC [U43A A57G U72A]: 0.66; for UAACAGGGGGCCACAGCAGAAGCGUUCACGUCGCAGCCCCUGACAGGUUCUGAUGAAUCUGCGAAUUCUGCUGUAUAUCUC [U43A A47G G53A]: 1.2. The same measure for UAACAGGGGGCCACAGCAGAAGCGUUCACGUCGCAGCCCCUAUCGGAUUCUGGUGAAGCUGUGAAUUCUGCUGUAUACCUC [G42A A45G U58G C62U U78C]: 0.11. Turning to UAACAGGGGGCCACAGCAGAAGCGUUCACGUCGCAGCCCCUGACGGAUUCCGGUGAAUCUGCGAAUUCUGCUGUAUAUCUC [U43A A45G U51C], the self-cleavage is 0.93. The same measure for UAACAGGGGGCCACAGCAGAAGCGUUCACGUCGCAGCCCCUCUCAGAUUCUGGUGAACCUGCGAAUUCUGCUGGAUACCUC [G42C U58C U74G U78C]: 0.25; for UAACAGGGGGCCACAGCAGAAGCGUUCACGUCGCAGCCCCUGACAGAUUCUGGUGAAUCUGCGAAUUCGGCAGUAUAUCUC [U43A U69G U72A]: 0.33.

Consider UAACAGGGGGCCACAGCAGAAGCGUUCACGUCGCAGCCCCUGACAGAUUCUGGUGAAUCAGCGAAUUCUGCCGUAUAUCCC [U43A U60A U72C U80C], for which the self-cleavage is 0.62. As for UAACAGGGGGCCACAGCAGAAGCGUUCACGUCGCAGCCCCUGCCUGAUUCUGGUGAAUCUGCGAAUUCUGCUGAAUAUCUC [U43C A45U U74A], the figure is 0.64; as for UAACAGGGGGCCACAGCAGAAGCGUUCACGUCGCAGCCCCUGACAGAUUCUGGUGUAUCUGCGGAUUCUGCUGUAUAUCUC [U43A A56U A64G], 0.56. The same measure for UAACAGGGGGCCACAGCAGAAGCGUUCACGUCGCAGCCCCUGACAGAUUCUGGUGAAUCUGCGGAUUCAGCUGUAUAUCUC [U43A A64G U69A]: 0.36. The same measure for UAACAGGGGGCCACAGCAGAAGCGUUCACGUCGCAGCCCCUGCCAGAUUCUGGUGGAUCUGCGAAUUCUGCUGUAUACCUC [U43C A56G U78C]: 0.47. Turning to UAACAGGGGGCCACAGCAGAAGCGUUCACGUCGCAGCCCCUUUCAGAUUCUGGUGAUUCUGCGAUUUCUGCCGUAUAUCUC [G42U A57U A65U U72C], the self-cleavage came out at 0.35. As for UAACAGGGGGCCACAGCAGAAGCGUUCACGUCGCAGCCCCUGACGGAUUCUGGUGAAUCUGCGAACUCUGCUGUAUAUCUC [U43A A45G U66C], the figure is 0.38; as for UAACAGGGGGCCACAGCAGAAGCGUUCACGUCGCAGCCCCUGACAGAUUCUGGCGAAUCUGCGAACUCUGCUGUAUAUCUC [U43A U54C U66C], 0.2; as for UAACAGGGGGCCACAGCAGAAGCGUUCACGUCGCAGCCCCUGCCGGAUUCUGGUGAAUCUGCGAAAUCUGCUGUAUAACUC [U43C A45G U66A U78A], 0.08. As for UAACAGGGGGCCACAGCAGAAGCGUUCACGUCGCAGCCCCUGACAUAUUCUGGCGAAUCUGCGAAUUCUGCUGUAUAUCUC [U43A G46U U54C], the figure is 0.55; as for UAACAGGGGGCCACAGCAGAAGCGUUCACGUCGCAGCCCCUGACAGAUUCUGGUGAAUCUGAGAGUUCUGCUGUAUAUCAC [U43A C62A A65G U80A], 0.2. As for UAACAGGGGGCCACAGCAGAAGCGUUCACGUCGCAGCCCCUGACAGGUACUGGUGGAUCUGCGAAUUCUGCUGUAUAUCCC [U43A A47G U49A A56G U80C], the self-cleavage is 0.31. Regarding UAACAGGGGGCCACAGCAGAAGCGUUCACGUCGCAGCCCCUGACAGAUUCUGGUGAAUCUGCGAACUUUGCUGUAUAUCUC [U43A U66C C68U], the self-cleavage was found to be 0.37.

In the case of UAACAGGGGGCCACAGCAGAAGCGUUCACGUCGCAGCCCCUGCCGGAUUCUGGUGAAUCAGCGAAUUCAGCUGUAUAUCUC [U43C A45G U60A U69A], the self-cleavage turned out to be 0.14. UAACAGGGGGCCACAGCAGAAGCGUUCACGUCGCAGCCCCUGACAGAUUCUGGGGAAUCCGCGAAUUCUGCUGAAUAUCUC [U43A U54G U60C U74A]: the self-cleavage came out at 0.53. With UAACAGGGGGCCACAGCAGAAGCGUUCACGUCGCAGCCCCUGACAGAUCCUGGUGUAUCAGUGGAUUCUGCUGUAUAUCUC [U43A U49C A56U U60A C62U A64G], the self-cleavage was 0.15.
